About 7,200 (1.8%) of roughly 410,000 compounds were called active. The inconclusive results got no clear call from the source; some entries with a clear call stand among them for comparison. The call rests on the fitted dose curve; in most records, active means well fitted activation curve with a large enough effect; inconclusive means small, poorly fitted or top-dose-only effect, or another doubt; inactive means no such curve, though single readings can be large or run the other way. Where the call is inconclusive, the potency comes from a doubtful curve fit.
assay: qHTS of TDP-43 Inhibitors; settings: TDP-43 expressing yeast growth rescue, BacTiter-Glo, 24 h; growth rescue (activation): at 46.1 µM (top of the series) unless noted; further: nearly all actives have a fitted effect of over 50% in size; on growth rescue (activation): % of control where 0% means no effect
Outline: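 Growth rescue of TDP-43-toxic yeast measured as ATP luminescence (BacTiter-Glo). Cells grown to mid-log in raffinose, induced in galactose at OD600=0.02, exposed to compound 24 hr at 30 deg C.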
Potency means the concentration at half of the fitted maximal effect; tags describe the fitted curve by direction and shape.

Potency, active:
O=C1C(SCCO)=C(SCCO)C(=O)c2ccccc21 22.4 µM
COc1cc(OC)cc(-c2sc3ccc(OC)cc3c2C#CC(C)(C)O)c1 11.2 µM
COC(=O)c1cccc(CN2C(=O)C(C)Oc3ccc(C)cc32)c1 (configuration not stated) 17.8 µM
COC(=O)c1c(-c2ccc(Br)cc2)noc1N 20 µM

Potency, inconclusive:
CCOC(=O)CC1ON(C)C(=O)N1c1ccc(Cl)cc1Cl (configuration not stated) 15.8 µM [activator, partial curve]
Cc1nn(-c2ccccc2)c(C)c1Cc1ccc(O)cc1 35.5 µM [activator, single point]
COc1ccccc1-c1ncn(Cc2cccc(-c3ccccc3)c2)c1-c1ccco1 35.5 µM [activator, single point]
COc1cc(C(c2c(C)[nH][nH]c2=O)c2c(C)[nH][nH]c2=O)ccc1OCc1ccc([N+](=O)[O-])cc1 35.5 µM [activator, single point]
O=C(Nc1ccccc1Cl)c1cccc(NC(=O)C2CCCC2)c1 17.8 µM [activator, single point]
O=C(NCc1ccccc1Cl)c1ccc2nnsc2c1 22.4 µM [activator, single point]
O=C(OCc1cccc(F)c1)c1ccc2c(=O)n3c(nc2c1)CCC3 14.1 µM [activator, single point]
Cc1ccc(NC(=O)C2CCN(S(=O)(=O)c3cc([N+](=O)[O-])ccc3Cl)CC2)nc1 17.8 µM [activator, partial curve]
Cc1noc(C)c1-c1ccc(C(=O)NCc2cccc(Cl)c2)c2occc12 35.5 µM [activator, single point]
Cc1cccc(Nc2ncc3c(n2)CC(c2ccco2)CC3=O)c1 (configuration not stated) 20 µM [activator, partial curve]
COc1cc(/C=C/C(=O)c2ccc3c(c2)OCO3)cc(OC)c1OC 12.6 µM [activator, partial curve]
O=c1oc2ccccc2cc1-c1nnc(NCc2ccco2)s1 5.01 µM [activator, partial curve]
COc1cc(OC)cc(C(=O)NCCc2csc3nc(-c4ccccc4F)nn23)c1 39.8 µM [activator, partial curve, poor fit]
CN(C)S(=O)(=O)N(CC(=O)Nc1ccc(C(F)(F)F)cc1)c1ccccc1 11.2 µM [activator, partial curve, poor fit]
Cn1nc(C(=O)Nc2ccc(S(=O)(=O)N3CCCCC3)cc2)c2ccccc2c1=O 35.5 µM [activator, single point]
CC1CCN(C(=O)CSc2nnc(-c3cc4ccccc4cc3O)n2Cc2ccco2)CC1 20 µM [activator, single point]
COc1ccc(N(Cc2cccs2)C(=O)c2ccco2)cc1 12.6 µM [activator, partial curve]
CCOc1ccc(C2C(C#N)=C(N)SC(N)=C2C#N)c(OCC)c1 1.58 µM [activator, partial curve]
COc1ccccc1N1CCN(C(=O)COc2ccc(C)cc2Br)CC1 25.1 µM [activator, single point]
COC(=O)c1nn(-c2ccc(-c3ccccc3)cc2)cc1O 7.94 µM [activator, partial curve]
CCc1cc2c(=O)n(CCC(C)C)c(=S)[nH]c2s1 12.6 µM [activator, partial curve]
CCC1NC(=O)c2cccnc2-n2c1nc1cc(C)cc(C)c1c2=O (configuration not stated) 2.82 µM [activator, full curve]
CCC(=O)Nc1cccc(NC(=S)NC(=O)c2cc3ccccc3o2)c1 10 µM [activator, partial curve]
Cc1ccc(CNC(=O)C2CC(c3ccccc3F)=NO2)cc1 (configuration not stated) 35.5 µM [activator, partial curve, poor fit]
Cc1ccc(C(=O)C2OC(=O)C(C)(C)C(=O)C2(C)C)cc1 (configuration not stated) 0.355 µM [activator, partial curve]
CCc1ccc(NC(=O)c2sc3ncnc(N(C)C4CCCCC4)c3c2C)cc1 35.5 µM [activator, partial curve]

Growth rescue (activation), inconclusive:
Oc1ccc(-c2cc(-c3ccc(O)cc3)nc(-c3ccccc3)n2)cc1 48.4% [activator]

Growth rescue (activation), inactive:
CCOc1ccc(NC(=O)C2(c3cccs3)CCOCC2)cc1 5.15%
COc1ccc(CNc2nc(-c3ccc(Cl)cc3)nn2S(=O)(=O)c2ccc(C)cc2)cc1 20.8%
O=C(CCC(=O)N1CCSc2ccccc21)Nc1ccc(Cl)cc1 23.5%
O=C(CSc1nc(C2CC2)nc2ccccc12)N1c2ccccc2Sc2ccccc21 7.57%
CCCCC(=O)Nc1nnc(S(=O)(=O)N(C)Cc2ccc(Cl)cc2)s1 6.85%
COc1ccc(CNC(=O)COCc2cc(-c3ccc4c(c3)OCO4)on2)cc1 23.9%
Cc1ccc(C(=O)COC(=O)c2ccccc2N2C(=O)C3C4CCC(C4)C3C2=O)cc1C (configuration not stated) -16.3%
CCOc1ccc(-n2c(=O)c3c(C)c(C)sc3n(CC(=O)C(C)(C)C)c2=O)cc1 6.44%
COc1ccc(-c2[nH]c(-c3ccc(O)cc3)nc2-c2ccccc2)cc1 23.8%
Cc1ccc(Cn2c(SCC(=O)NCc3ccccc3)nc3ccsc3c2=O)cc1 8.67%
O=c1cc(-c2ccccc2)[nH]c2cc(Cl)ccc12 -19.9%
Fc1cc(F)cc(-c2oncc2-c2nnnn2-c2ccccc2)c1 25.2%
O=C(CCl)c1ccc(Cc2ncc(C(F)(F)F)cc2Cl)s1 -3.37%
CCN=C(N/N=C/c1ccc([N+](=O)[O-])cc1)SC 25.9%
Cc1cc(NC(=O)CC23CC4CC(C2)CC(CC(=O)Nc2cc(C)on2)(C4)C3)no1 -11.4%
O=C1CCN(CCc2ccccc2)CCN1CCO -3.58%

Reference: PubChem BioAssay AID652104 (National Center for Advancing Translational Sciences (NCATS), 2013)
